# Measured values from PubChem BioAssay AID1745853 (National Center for Advancing Translational Sciences (NCATS), 2022).
# Values joined by “and” are separate entries in the source; they are usually repeats but may differ in a detail not shown here. Equal values may be shown once. The list shows a part of the results. The main result of the screen is listed elsewhere. These columns were measured beside it and carry no call. Peptide text beside a SMILES is read from it. * marks the point of attachment. Hexanoyl = CCCCCC(=O)*
# Columns and labels:
# Assay in all cases: Primary Screen for Target Class Profiling of Small Molecule Inhibitors of Methyltransferases
# [1] = biological target: Glycine N-methyltransferase (Homo sapiens) (UniProt Q14749); details: purified enzyme, MTase-Glo SAH luminescence; measured here: GNMT inhibition; at 40 µM; stronger effect = lower value
# Outline: (§1)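 Each enzyme was reacted with SAM and its substrate, with compounds tested once at 40 uM; SAH formed was read by MTase-Glo luminescence.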
# [2] = biological target: Guanidinoacetate N-methyltransferase (Homo sapiens) (UniProt Q14353); details: purified enzyme, MTase-Glo SAH luminescence; measured here: GAMT inhibition; at 40 µM; stronger effect = lower value
# Outline: as §1
# [3] = biological target: Histamine N-methyltransferase (Homo sapiens) (UniProt P50135); details: purified enzyme, MTase-Glo SAH luminescence; measured here: HNMT inhibition; at 40 µM; stronger effect = lower value
# Outline: as §1
# [4] = biological target: Nicotinamide N-methyltransferase (Homo sapiens) (UniProt P40261); details: purified enzyme, MTase-Glo SAH luminescence; measured here: NNMT inhibition; at 40 µM; stronger effect = lower value
# Outline: as §1
# [5] = biological target: Phenylethanolamine N-methyltransferase (Homo sapiens) (UniProt P11086); details: purified enzyme, MTase-Glo SAH luminescence; measured here: PNMT inhibition; at 40 µM; stronger effect = lower value
# Outline: as §1
# % is scaled to controls: 0 for no effect and ±100 for the full control effect.
SMILES,"activity change, negative = inhibition [1] [%]","activity change, negative = inhibition [2]","activity change, negative = inhibition [3] [%]","activity change, negative = inhibition [4]","activity change, negative = inhibition [5]"
CCOC(=O)C1CCN(S(=O)(=O)c2cccc(-c3nc(-c4ccccc4)no3)c2)CC1,-1.5,-0.051%,-5.92,-19.4%,-8.37%
CCSC(=N)N,3.62,6.96%,-7.99,-13.1%,-5.09%
O=C(O)C1Cc2c([nH]c3ccccc23)C(c2ccccc2Br)N1 (stereo not drawn),-20.3,-0.128%,-9.86,-10.1%,-7.4%
O=C1NCCOCCCN(C(=O)NCCc2ccccc2)[C@H]2CCCC[C@@H]12,-3.31,-2.4%,-18.3,-5.66%,-0.625%
COC(=O)C1=CO[C@@H](O)C2C(CO)=CCC12 (stereo partly drawn),1.99,7.46%,12.4,-2.94%,9.25%
CC(C)(O)C1CCC2(C)CCCC(C)(O)C2C1 (stereo not drawn),6.67,2.66%,10.2,-7.56%,-0.415%
CCc1ccc(CN2C(=O)c3cc(-c4ccccc4)nn3CC2(C)C(=O)NCc2ccccc2OC)cc1 (stereo not drawn),2.4,1.18%,5.04,4.56%,-0.917%
CC[C@@H](C)[C@H](NC(=O)[C@H](CC1CCCCC1)NC(=O)c1ccno1)C(=O)N1CCC2(CCc3ccccc32)CC1,-0.949,-27.4%,5.23,-43.5%,-21.1%
O=C(CCc1nnc2n(CCc3ccccc3)c(=O)c3ccccc3n12)NCCN1CCOCC1,2.11,0%,6.68,13.7%,1.47%
Cn1c(=O)c2ccc(C(=O)NC3CCCCC3)cc2n2c(=O)n(CC(=O)c3ccc(Cl)cc3)nc12,2.42,0.749%,4.93,-2.16%,-0.724%
COc1ccc(Cl)cc1NC(=O)c1ncn2c1C(=O)N(C1CC1)C(C)(C(=O)NCc1ccc(F)cc1)C2 (stereo not drawn),-0.363,0.673%,-9.96,-14.1%,8.49%
CC(C)CCC(=O)CC1c2ccccc2C(=O)N1c1ccc2ccc(Cl)nc2n1 (stereo not drawn),0.735,-7.17%,7.17,-20.3%,-3.96%
Nc1ncn([C@@H]2O[C@H](CO)[C@@H](O)[C@H]2O)c(=O)n1,2.04,10.4%,5.29,-2.62%,8.06%
CCc1nc(C)c(C(=O)N2CC[C@@](O)(COC)C(C)(C)C2)s1,-5.47,-2.25%,-0.337,-1.37%,-1.29%
O=C(NC1CCCC1)N[C@@H]1C[C@H](Cn2cc(C3CC3)nn2)[C@@H](O)[C@H]1O,-0.319,0.29%,-2.18,-3.78%,-4.38%
CCCNC(C)C(=O)Nc1ccccc1C (stereo not drawn),3.19,9.4%,4.2,-3.04%,7.44%
COc1ccc(CN(CCN(C)C)c2ccccn2)cc1,5.67,12.8%,-2.78,-2.36%,0.501%
CC(=O)Nc1cccc2c1c(Sc1ccc(Cl)cc1)c(C)n2CC(=O)O,-9.65,-17.6%,0.834,-29%,-15.7%
COc1ccccc1CC(=O)Nc1cccn2nc(C(C)C)nc12,-7.03,-0.697%,-2.34,-6.32%,1.61%
COC(=O)[C@@]1(c2ccc(C)cc2)C[C@H]1CN1CCC(O)(c2ccccc2)CC1,1.54,-8.45%,-10.7,-16.1%,-11.9%

SMILES,"activity change, negative = inhibition [1] [%]","activity change, negative = inhibition [2]","activity change, negative = inhibition [3] [%]","activity change, negative = inhibition [4]","activity change, negative = inhibition [5]"
O=C(c1cccs1)N1CC[C@H]2COC(=O)N2c2cc(F)ccc2C1,-0.374,-3.4%,-0.158,-5.46%,0.592%
CCc1ccc(N2C(=O)c3cc4sc(CC)cc4n3CC2(C)C(=O)NC2CCCCC2)cc1 (stereo not drawn),-0.771,5.57%,-3.46,0.566%,-4.61%
CNc1ncnc2c1ncn2[C@H]1C[C@H](OP(=O)(O)O)[C@@H](COP(=O)(O)O)O1,5.82,11.7%,5.82,-0.3%,9.04%
O=C(CC1CCCC1)N1CC2CC(C1)[C@H]1CCCC(=O)N1C2 (stereo partly drawn),-1.32,3.78%,1.65,-2.3%,13.7%
O=S(=O)(Cc1ccccc1)N1CCCC(Cc2noc(-c3cccnc3)n2)C1 (stereo not drawn),-4.63,-6.46%,-1.94,-5.26%,-3.57%
Cc1ccc(Cl)cc1N1CCN(S(=O)(=O)c2ccc3[nH]c(=O)[nH]c3c2)CC1,15.6,0.578%,10.9,2.56%,7.74%
Cc1nc(NCCn2ncc3ccccc3c2=O)cc(C2CC(O)C2)n1 (stereo not drawn),-3.6,-1.93%,-1.17,-7.24%,-0.194%
O=C(Nc1ccc(OC(F)(F)F)cc1)c1sccc1NCc1ccnc2ccccc12,-9.08,-3.15%,1.55,-25.1%,-13.5%
O=C(Cn1nc2n(CCc3ccccc3)c(=O)c3ccccc3n2c1=O)Nc1ccc(F)cc1,8.68,1.98%,11.4,9.5%,8.76%
CC(C)(O)c1ccc2c(c1)C(O)C[C@H]1[C@](C)(C(=O)O)CCC[C@]21C (stereo partly drawn),0.95,2.04%,6.41,-6.68%,-1.05%
CN1C(=O)c2cc(C(=O)NCCN3CCOCC3)nn2CC1(C)C(=O)NC1CCCCCC1 (stereo not drawn),6.5,0%,6.25,3.19%,2.5%
COc1cc(/C=C/C(=O)N2CCN(CC(=O)N3CCCC3)CC2)cc(OC)c1OC,2.18,-1.67%,0.94,-10.9%,-2.58%
CC(C)C1c2cccn2CCN1C(=O)Nc1cc(F)ccc1F (stereo not drawn),4.32,1.04%,-0.406,0.672%,2.15%
CCCCCC(=O)N1CCC[C@H]1C(=O)N[C@@H](Cc1ccc(O)cc1)C(=O)OC (Hexanoyl-Pro-Tyr-OMe),-7.42,-15.4%,-2.31,-18.6%,-13.1%
Cc1cccc(CNC(=O)C2(C)Cn3cnc(C(=O)N4CCCC4)c3C(=O)N2C2CC2)c1 (stereo not drawn),4.39,0.97%,4.19,2.15%,3.89%
COC(=O)[C@H](O)[C@H]1C(C)(C)[C@H](OC(=O)C(C)C)[C@@]2(O)C(=O)[C@]1(C)C1CC[C@]3(C)C(CC(=O)O[C@H]3c3ccoc3)[C@]13O[C@@H]32 (stereo partly drawn),0,-7.95%,1.3,-20%,1.05%
C/C=C1/[C@H](O[C@@H]2O[C@H](CO)[C@@H](O)[C@H](O)[C@H]2O)OC=C(C(=O)OC)[C@H]1CC(=O)OCCc1ccc(O)c(O)c1,-2.37,-2.72% and 8.85%,7.34,-16.3% and -8.62%,-12.8% and 0.127%
CC1(C(=O)NC2CCCCC2)Cn2nc(-c3ccco3)cc2C(=O)N1Cc1ccc(F)cc1 (stereo not drawn),-13.7,-11.9%,-5.28,-14.2%,-9.42%
Cc1ncsc1CN(Cc1ccccc1)C(=O)c1cn(CCC2CCCCC2)nn1,-5.98,4.03%,-0.883,-14.9%,6.21%
CC(C)OCCCNC(=O)c1cc2n(n1)CC(C)(C(=O)NC1CCCCC1)N(C)C2=O (stereo not drawn),8.11,5.86%,5.28,5.79%,1.36%

SMILES,"activity change, negative = inhibition [1] [%]","activity change, negative = inhibition [2]","activity change, negative = inhibition [3] [%]","activity change, negative = inhibition [4]","activity change, negative = inhibition [5]"
COc1cccc(CNC(=O)c2sc(=S)n3c2[nH]c(=O)c2cc4c(cc23)OCO4)c1,-40.5,3.1%,3.62,-42.9%,-31.3%
CN1C[C@@H](NC(=O)Nc2ccccc2)C[C@H]1c1nc(Cc2ccccc2)no1,-2.71,-0.596%,-2.58,-2.05%,-1.16%
CCCC1c2ccc(C)n2CCN1C(=O)Nc1ccc(Br)cc1F (stereo not drawn),-2.53,3.13%,-12.4,-2.87%,-5.16%
CC(C)NS(=O)(=O)c1ccc2c(c1)nc(-c1cc(C(C)(C)C)[nH]n1)n2C(C)C,-4.09,0.742%,-0.204,-4.44%,-2.21%
COc1ccc(NC(=O)/C=C/c2ccc(Cl)cc2)cc1,-9.66,1.01%,-4.31,-54.5%,-4.69%
Cc1nn(CCO)cc1-c1c(-c2ccccc2)ncn1CC(=O)O,-4.08,-5.76%,-2.58,-5.44%,-7.82%
COc1cc(OC)cc(-c2ccc3c(-c4ccc(F)cc4)[nH]nc3n2)c1,-2.5,-4.08%,7.47,-15.2%,1.3%
CNC(=O)c1cc2c(cn1)[nH]c1ccccc12,-9.46,1.71%,-6.49,-11.7%,1.57%
COc1cccc(-c2ccc(NC(=O)C3=C(C(=O)O)CCC3)c(F)c2)c1,-12.3,-0.684%,4.52,-18.4%,-0.773%
CCC(C)C(=O)O[C@H]1[C@H](O)[C@@]2(COC(C)=O)C(CC1(C)C)C1=CCC3[C@@]4(C)CC[C@H](O[C@@H]5O[C@H](C(=O)O)[C@@H](O)[C@H](O)[C@H]5O)[C@@](C)(CO)C4CC[C@@]3(C)[C@]1(C)C[C@@H]2O (stereo partly drawn),3.05,13.5%,11.9,-4.59%,9.4%
O=C(O)CCc1ccc(NCc2cccc3c2CCCN3CCOc2ccccc2)cc1F,-27.8,-7.53%,-4.77,-52.5%,-10.2%
CC(C)=CCNc1ncnc2c1ncn2[C@@H]1O[C@H](CO)[C@@H](O)[C@H]1O,,496%,,397%,139%
OCCCNc1cc(-c2ccnc(Nc3cccc(Cl)c3)n2)ccn1,-87.5,-74.2%,-86.9,-79.6%,-85.3%
COc1cc(C(=O)OC[C@H]2O[C@H](O[C@@]3(CO)O[C@@H](CO)[C@H](O)[C@H]3O)[C@H](O)[C@@H](O)[C@@H]2O)ccc1O,4.36,8.62%,9.52,-3.63%,8.1%
COc1ccccc1NC(=O)CSc1nnc2n(CC(C)C)c(=O)c3ccc(Cl)cc3n12,-0.861,0%,3.07,1.29%,2.11%
COc1cccc(CN2C(=O)CCCCC2C(=O)NCCc2c[nH]c3ccc(OC)cc23)c1 (stereo not drawn),-0.81,-0.105%,0.047,-8.64%,-6.82%
COC(=O)[C@]1(C)CCC[C@@]2(C)C(=O)CC[C@H]3C(=O)C=C(CC[C@@H]21)C3O (stereo partly drawn),0,6.38%,9.17,-8.38%,1.67%
Clc1cccc(-c2nnnn2Cc2cccnc2)c1Cl,6.88,3.72%,5.95,-15.2%,-1.81%
Cc1ccccc1CSc1nnc2n(Cc3ccccc3)c(=O)c3ccc(C(=O)NC(C)C)cc3n12,8.31,1.39%,7.25,9.7%,10.8%
Cc1ccc(Cn2c(=O)c3ccc(C(=O)NC(C)C)cc3n3c(=O)n(Cc4ccccc4Cl)nc23)cc1,5.28,1.23%,8.46,0.991%,5.44%
